Reference: PubChem BioAssay (NCATS)
Several values for one entry are separate records, joined by “and”; a condition that tells them apart may be missing. Identical values can stand only once. The inconclusive results got no clear call from the source; some entries with a clear call stand among them for comparison. Potencies of inconclusive entries are doubtful fits and often do not repeat. Activity calls are given as the source filed them. Calls come from the whole dose curve; as a rule, active = well fitted curve in the direction sought with a large enough effect; inconclusive = small, poorly fitted or top-dose-only effect, or another doubt; inactive = no such curve, though single readings can be large; an effect the other way counts as inactive or inconclusive.

Columns and labels:
[1] = tested on: CRL-7250; experiment: Cytotoxic Profiling of Annotated Libraries Using Quantitative High-Throughput Screening (AID 1296008); conditions: Five cell lines viability, CellTiter-Glo ATP luminescence, 48-72 h; max response: stronger effect = lower value; note: nearly all actives have a fitted effect of over 60% in size; for max response: % is set by controls: 0 for no effect and ±100 for the full control effect
Procedure, shortened: (§1)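 Cytotoxicity was measured as CellTiter-Glo ATP luminescence, read after 10 min at room temperature. Compound treatment of the cells lasted 48 or 72 hr at 37 degrees Celsius in a qHTS format.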

[2] = tested on: HaCat; experiment: as above; conditions: Five cell lines viability, CellTiter-Glo ATP luminescence, 48-72 h; max response: stronger effect = lower value
Procedure, shortened: as §1

[3] = tested on: C33A; experiment: Primary qHTS to identify gynecologic anti-cancer compounds using libraries of approved drugs and bioactive compounds (AID 1345084); conditions: Gynecologic cancer cell panel viability, ATPlite luminescence, 48 h; series mostly up to 57.5 µM; note: nearly all actives have a fitted effect of over 55% in size; for activity change, negative = cytotoxicity: % is set by controls: 0 for no effect and ±100 for the full control effect
Procedure, shortened: (§2)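 Cytotoxicity screen measuring ATP content by luciferase luminescence. Each compound is applied at five concentrations for 48 h at 37 C with 5% CO2.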

[4] = tested on: CAOV3; experiment: as above; conditions: Gynecologic cancer cell panel viability, ATPlite luminescence, 48 h; activity change, negative = cytotoxicity: at 57.5 µM (top of the series)
Procedure, shortened: as §2

[5] = tested on: CASKI; experiment: as above; conditions: Gynecologic cancer cell panel viability, ATPlite luminescence, 48 h; series mostly up to 57.5 µM
Procedure, shortened: as §2

[6] = tested on: Es-2; experiment: as above; conditions: Gynecologic cancer cell panel viability, ATPlite luminescence, 48 h; series mostly up to 57.5 µM
Procedure, shortened: as §2

[7] = tested on: HeLa; experiment: as above; conditions: Gynecologic cancer cell panel viability, ATPlite luminescence, 48 h; activity change, negative = cytotoxicity: at 57.5 µM (top of the series)
Procedure, shortened: as §2

[8] = tested on: Hek293T; experiment: as above; conditions: Gynecologic cancer cell panel viability, ATPlite luminescence, 48 h, control line for the selectivity index; activity change, negative = cytotoxicity: at 57.5 µM (top of the series) unless noted
Procedure, shortened: as §2

[9] = tested on: JEG-3; experiment: as above; conditions: Gynecologic cancer cell panel viability, ATPlite luminescence, 48 h; series mostly up to 57.5 µM
Procedure, shortened: as §2

[10] = tested on: OV90; experiment: as above; conditions: Gynecologic cancer cell panel viability, ATPlite luminescence, 48 h; series mostly up to 57.5 µM
Procedure, shortened: as §2

[11] = tested on: PA-1; experiment: as above; conditions: Gynecologic cancer cell panel viability, ATPlite luminescence, 48 h; series mostly up to 57.5 µM
Procedure, shortened: as §2

[12] = tested on: SKOV3; experiment: as above; conditions: Gynecologic cancer cell panel viability, ATPlite luminescence, 48 h; series mostly up to 57.5 µM
Procedure, shortened: as §2

[13] = tested on: Tov-21-G; experiment: as above; conditions: Gynecologic cancer cell panel viability, ATPlite luminescence, 48 h; activity change, negative = cytotoxicity: at 57.5 µM (top of the series) unless noted
Procedure, shortened: as §2

[14] = tested on: Tov112D; experiment: as above; conditions: Gynecologic cancer cell panel viability, ATPlite luminescence, 48 h; series mostly up to 57.5 µM
Procedure, shortened: as §2

[15] = Primary qHTS for inhibitors of nuclear receptor binding SET domain protein 2 (NSD2) in an isogenic RCH-ACV NSD2 p.E1099K mutant (9B) (AID 1645876); note: nearly all actives have a fitted effect of over 70% in size
[16] = Primary qHTS for inhibitors of nuclear receptor binding SET domain protein 2 (NSD2) in an RCH-ACV wild type WT cells (2C) (AID 1645877); conditions: activity change, negative = cell killing: at 44.9 µM (top of the series) unless noted; note: nearly all actives have a fitted effect of over 70% in size; for activity change, negative = cell killing: % is set by controls: 0 for no effect and ±100 for the full control effect
[17] = P-glycoprotein substrates identified in KB-8-5-11 adenocarcinoma cell line, qHTS therapeutic library screen (AID 1346987); note: nearly all actives have a fitted effect of over 65% in size
Procedure, shortened: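 Compounds are pinned in dose-response onto KB-8-5-11 cells (500 cells/well, colchicine-free medium) and left 72 h at 37 degree C. CellTiter-Glo luminescence then yields AC50 values.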

[18] = tested on: NIH3T3; experiment: Cytotoxic Profiling of Annotated Libraries Using Quantitative High-Throughput Screening (AID 1296008); conditions: Five cell lines viability, CellTiter-Glo ATP luminescence, 48-72 h; max response: stronger effect = lower value; note: nearly all actives have a fitted effect of over 60% in size; for max response: % is set by controls: 0 for no effect and ±100 for the full control effect
Procedure, shortened: as §1
Potency is the fitted concentration of half-maximal effect; tags give direction and shape of the fitted curve.

| Structure (SMILES) | Potency [1] | Potency [2] | Potency [3] | Potency [4] | Potency [5] | Potency [6] | Potency [7] | Potency [8] | Potency [9] | Potency [10] | Potency [11] | Potency [12] | Potency [13] | Potency [14] | Potency [15] | Potency [16] | max response [1] | Potency [17] | Potency [18] |
| --- | --- | --- | --- | --- | --- | --- | --- | --- | --- | --- | --- | --- | --- | --- | --- | --- | --- | --- | --- |
| NC(=O)C1(N2CCCCC2)CCN(CCCN2c3ccccc3CCc3ccc(Cl)cc32)CC1 | inconclusive: 29.9 µM [inhibitor, single point] | inconclusive: 33.5 µM [inhibitor, single point] | active: 25.1 µM | inconclusive: 39.8 µM [cytotoxic, single point] | inconclusive: 25.1 µM [cytotoxic, single point] | inconclusive: 28.2 µM [cytotoxic, single point] | inconclusive: 28.2 µM [cytotoxic, single point] | inconclusive: 28.2 µM [cytotoxic, single point] | inconclusive: 39.8 µM [cytotoxic, single point] | active: 22.4 µM | inconclusive: 39.8 µM [cytotoxic, single point] | inconclusive: 39.8 µM [cytotoxic, single point] | inconclusive: 31.6 µM [cytotoxic, single point] | inconclusive: 35.5 µM [cytotoxic, single point] | – | – | – | – | – |
| Nc1ncnc2c1ncn2Cc1c(F)cccc1Cl | – | inconclusive: 23.7 µM [inhibitor, single point] | – | inconclusive: 1.58 µM [cytotoxic, full curve, poor fit] | – | – | – | – | – | – | – | – | – | – | inactive | inactive | inactive: -8.42% | – | – |
| CC(=O)O[C@@H]1C[C@H](O)[C@@]23CO[C@H](O)[C@]1(C)C2C[C@@H](O)[C@]1(C)C3C(=O)[C@H](OC(C)=O)[C@@]2(C)[C@H](c3ccoc3)C[C@H]3O[C@]321 (stereo partly specified) | active: 0.485 µM | inconclusive: 1.09 µM [inhibitor, full curve] | active: 1.12 µM | active: 1.12 µM | – | active: 0.501 µM | inconclusive: 1 µM [cytotoxic, partial curve, poor fit] | active: 2.51 µM | – | inconclusive: 0.141 µM [cytotoxic, full curve, poor fit] | active: 0.562 µM | inconclusive: 0.447 µM [cytotoxic, full curve] | inconclusive: 0.224 µM [cytotoxic, full curve] | – | – | – | – | inconclusive: 8.62 µM [inhibitor, single point] | active: 0.432 µM |
| C[C@@H]1O[C@@H](O[C@H]2[C@H](OC(=O)[C@]34CCC(C)(C)C[C@H]3C3=CCC5[C@@]6(C)C[C@H](O)[C@H](O[C@@H]7O[C@H](CO)[C@@H](O)[C@H](O)[C@H]7O)[C@](CO)(C(=O)O)C6CC[C@@]5(C)[C@]3(C)C[C@H]4O)OC[C@H](O)[C@@H]2O)[C@H](O)[C@H](O)[C@H]1O[C@@H]1OC[C@@H](O)[C@H](O[C@@H]2OC[C@](O)(CO)[C@H]2O)[C@H]1O (stereo partly specified) | active: 1.38 µM | inconclusive: 0.977 µM [inhibitor, partial curve, poor fit] | inconclusive: 3.16 µM [cytotoxic, partial curve] | – | – | active: 2.82 µM | inconclusive: 2.82 µM [cytotoxic, partial curve, poor fit] | inconclusive: 5.01 µM [cytotoxic, partial curve, poor fit] | inconclusive: 4.47 µM [cytotoxic, single point] | – | inconclusive: 1.41 µM [cytotoxic, partial curve, poor fit] | inconclusive: 1.26 µM [cytotoxic, single point] | inconclusive: 3.98 µM [cytotoxic, partial curve] | – | – | – | – | – | inconclusive: 1.23 µM [inhibitor, partial curve] |
| C=C1C(=O)O[C@@H]2C[C@@]3(C)CCCC(=C)[C@]3(O)C[C@H]12 | inconclusive: 25.9 µM [inhibitor, single point] | inconclusive: 29.1 µM [inhibitor, single point] | – | inconclusive: 31.6 µM [cytotoxic, single point] | – | – | – | inconclusive: 39.8 µM [cytotoxic, single point] | – | – | inconclusive: 28.2 µM [cytotoxic, single point] | – | inconclusive: 14.1 µM [cytotoxic, partial curve, poor fit] | – | – | – | – | inconclusive: 18.4 µM [inhibitor, single point] | inconclusive: 18.4 µM [inhibitor, single point] |
| COC(=O)N[C@@H](C)CNc1nccc(-c2cn(C(C)C)nc2-c2cc(Cl)cc(NS(C)(=O)=O)c2F)n1 | inconclusive: 0.146 µM [inhibitor, full curve] | inconclusive: 1.84 µM [inhibitor, partial curve, poor fit] | – | – | – | inconclusive: 1.41 µM [cytotoxic, full curve, poor fit] | inactive | – | inconclusive: 31.6 µM [rising, single point] | – | – | inconclusive: 1.26 µM [cytotoxic, full curve, poor fit] | active: 1.58 µM | – | inconclusive: 728 nM [inhibitor, partial curve, poor fit] and inactive | inconclusive: 2.06 µM [inhibitor, full curve] and inconclusive: 2.35 µM [inhibitor, full curve] | – | – | inconclusive: 23.1 µM [inhibitor, single point] |
